Results published in ChEMBL document CHEMBL1201862, “PubChem BioAssay data set” (2004).
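Briefly, cells in 96-well plates were exposed to five compound concentrations for 48 h, and endpoints were estimated by linear interpolation. GI50 marks 50% less growth.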 The source made the active and inactive calls. No stated cut-off is given here; in the data, active = GI50 up to about 1.1 µM and inactive = higher. Square brackets hold non-standard residues; d marks the D form. Peptide text beside a SMILES is read from it. * marks the point of attachment. Bn2Val = CC(C)[C@@H](C(=O)*)N(Cc1ccccc1)Cc1ccccc1; NHPiperonyl = c1cc2c(cc1CN*)OCO2; NMeV = CN[C@H](C(=O)O)C(C)C; dNMeA = CN[C@H](C)C(=O)O

tested on: NCI-H322M; experiment: NCI anticancer screen, dose series, 48 h

Structure (SMILES)	GI50
CC(=O)OC1=c2ccccc2=C(O)C2C1C=NN2C(C)=O (configuration not stated)	inactive: > 100 µM
CCOC(=O)c1c(C)n(-c2ccc(Cl)cc2)c2c1cc(O)c1[nH]c3c(c12)CCCC3	inactive: 63 µM
CC(C)[C@H](NC(=O)[C@H](C(C)C)N(Cc1ccccc1)Cc1ccccc1)C(=O)N(C)[C@H](C(=O)N1CCC[C@H]1C(=O)N(C)[C@H](C)C(=O)NCc1ccc2c(c1)OCO2)C(C)C (Bn2Val-V[NMeV]P[dNMeA]-NHPiperonyl)	inactive: 25.6 µM
COc1ccccc1NCc1cccc2c(=O)c3ccc(Cl)cc3oc12	inactive: > 100 µM
C=C(CO[Si](C)(C)C(C)(C)C)C(C)=O	inactive: > 84.5 µM
COC(=O)C(/C(=N/NC(=O)c1ccncc1)C(=O)Nc1ccccc1OC)c1nc2ccc(Cl)cc2nc1O (configuration not stated)	inactive: > 100 µM
Cc1nc2ccccc2nc1-c1ccc(/N=[N+](\[O-])c2ccc(-c3nc4ccccc4nc3C)cc2)cc1	inactive: > 100 µM
COC(=O)C12C3C4C1C1C2C3C41C(=O)N(C(C)C)C(C)C (configuration not stated)	inactive: > 100 µM
Oc1nc2nc3ccccc3nc2nc1O	inactive: > 100 µM
COc1ccc(NC(=O)/C(Cc2nc3ccccc3nc2O)=N\O)c(OC)c1	inactive: > 100 µM
CC[C@H](C)N(CCN)C(=O)c1cc2ccccc2c(-c2ccccc2Cl)n1	inactive: 13.5 µM
COc1ccc2nc3cc(Cl)ccc3c(SCC(=O)Nc3ccccc3-c3ccccc3NC(=O)CSc3c4ccc(Cl)cc4nc4ccc(OC)cc34)c2c1	inactive: > 100 µM
COc1cc2ccn3c4cc(OC)c(OC)cc4cc3c2cc1OC	inactive: > 100 µM
COc1c2cc(C(C)(C)C)cc1Cc1cccc(c1O)Cc1cc(C(C)(C)C)cc(c1OC)Cc1cccc(c1O)Cc1cc(C(C)(C)C)cc(c1OC)Cc1cccc(c1O)C2	inactive: > 100 µM
COC(=O)CC(C)(N[S+]([O-])c1ccc(C)cc1)c1ccccc1 (configuration not stated)	inactive: > 100 µM
CC(C)C(CCOS(=O)(=O)O)CCC(C)[C@H]1[C@@H](O)C(O)C2[C@]3(O)C[C@@H](O)C4(O)C[C@@H](O)CC[C@]4(C)C3CC[C@@]21C (some centres not stated)	inactive: > 100 µM
COc1c(O)cc2c(c1O)C(=O)/C(=C/c1ccc(O)cc1)CO2	inactive: 28.1 µM
CCOC(=O)C(=O)Nc1cc(Cl)ccc1Cl	inactive: > 100 µM
N#CC(=N)c1ncn(-c2ccc(N)cc2)c1N	inactive: 19.9 µM
CC(C)(C)c1cc2c(c(C(C)(C)C)c1O)CC(=O)O2	inactive: 68.5 µM
CCC/C=C\C=C\C1(NS(=O)(=O)c2ccc(C)cc2)CCC(C(C)(C)C)CC1 (configuration not stated)	inactive: 10.6 µM
O=c1ccc2cc(O)c(O)cc2o1 [ESCULETIN]	inactive: > 100 µM
COC1(OC)C(N(C)C)=C(Cl)C(=O)/C1=C/C=O	inactive: > 100 µM

Structure (SMILES)	GI50
O=c1c2c(c1=O)C1(SCCCS1)c1cc(Cl)ccc1O2	inactive: > 100 µM
O=C(O)C(CS)Nc1c2ccccc2nc2ccccc12 (configuration not stated)	inactive: 80.7 µM
CC(C)SC(=S)Sc1c(Cl)c(Cl)nc(Cl)c1Cl	inactive: 15.1 µM
CC(C)=CCC[C@@H](C)C1=C(O)C(=O)C(C)=C(Nc2ccccc2)C1=O	inactive: 17.5 µM
O=c1c2ccccc2c2c3c1cccc3c1cccc3c(=O)c4ccccc4c2c31	inactive: > 100 µM
CCc1nc(Cl)c(Cl)c(Cl)n1	inactive: > 100 µM
CC(C)(C)[C@H]1CC[C@@](O)(c2ccccc2)CC1.CC(C)(C)[C@H]1CC[C@](O)(c2ccccc2)CC1	inactive: 29.2 µM
N#C/C(=C\c1cc(O)cc(O)c1)C(N)=O	inactive: 71.9 µM
COc1ccc(SS(=O)(=O)c2ccc(OC)cc2)cc1	inactive: 34.4 µM
Nc1nc(Cl)nc2c1ncn2C1CCC(CO)O1 (configuration not stated)	inactive: > 100 µM
Cc1ccc2nc(CN3CCCC(O)C3)cc(=O)n2c1 (configuration not stated)	inactive: > 100 µM
CCCCCCCCCCSS(=O)(=O)c1ccc(C)cc1	inactive: 17.4 µM
NNc1ncnc2cccc(Cl)c12	inactive: > 100 µM
N#Cc1ccccc1C(Cl)(Cl)c1cnccn1	inactive: > 100 µM
OCCNC1c2cc(Cl)ccc2-c2c(Cl)cc(Cl)cc21 (configuration not stated)	inactive: 38.7 µM
COc1c(Cl)c(=O)oc2ccc(Cl)cc12	inactive: > 100 µM
O=C1Nc2ccccc2/C1=N/N=C1NCCCCN1	inactive: > 100 µM
CC(C)C(OC(=O)c1ccc(NCC2=CC(=O)C=CC2=O)cc1)C(C)C	inactive: 22.1 µM
COc1nc(-c2cn(S(=O)(=O)c3ccc(C)cc3)c3ccc(Br)cc23)cc(C(F)(F)F)c1C#N	inactive: > 100 µM
CC(C)=CCC/C(C)=C/CCC1(C)C=Cc2c(c3ccccc3oc2=O)O1 (configuration not stated)	inactive: 17.2 µM
Cc1ccc(SCC(CSCCO)OCn2cnc3c2N=C(N)NC32OCCO2)cc1 (configuration not stated)	inactive: > 100 µM
COc1ccc(-c2cc(=O)c3c(OC)c(OC)c(OC)c(OC)c3o2)cc1 [TANGERETIN]	inactive: 75.5 µM
CC(C)(C)[Si](C)(C)OCCC1CC2(S(=O)(=O)C3=CC=C=C=C3)ON1CC2S(=O)(=O)c1ccccc1 (configuration not stated)	inactive: > 10 µM

Structure (SMILES)	GI50
Clc1c(Cl)c(Cl)c2c(nnn2C2CCCO2)c1Cl (configuration not stated)	inactive: 46.9 µM
COC1(C(C)(C)C)C=C(C(C)(C)C)P(=O)(O)O1 (configuration not stated)	inactive: > 100 µM
c1ccc(/N=C2\c3ccccc3CN2c2ccccc2)cc1	inactive: > 100 µM
CSC1=C(c2ccc(Cl)cc2)SC(N2CCCCC2)N1c1ccc([N+](=O)[O-])cc1 (configuration not stated)	inactive: 29.3 µM
FC(F)(F)c1ccc2nc(Sc3ccccn3)cnc2c1	inactive: 37.2 µM
Cc1cc(NS(=O)(=O)c2ccc(NC(=O)c3cccc4c(=O)c5ccccc5[nH]c34)cc2)no1	inactive: 23.1 µM
CCOC(=O)C1=CNC2=N[C@H]3CCCC[C@@H]3N2C1=O	inactive: > 100 µM
COc1ccc(-c2nc3c(nc2-c2ccc(OC)cc2)N(C)S(=O)(=O)N=C3N)cc1	inactive: 34.9 µM
CN(C)CCn1c(=O)c2ccc(NCCCN(C)CCCNc3ccc4c(=O)n(CCN(C)C)c(=O)n5c6ccccc6c(=O)c3c45)c3c(=O)c4ccccc4n(c1=O)c23	active: < 0.01 µM
C[C@@H]1[C@H](C)N1CC(O)Cn1ccnc1[N+](=O)[O-] (some centres not stated)	inactive: > 100 µM
Cc1ccsc1/C=N/Nc1nncc2ccccc12	inactive: > 100 µM
CCC/C(=N\NC(=O)c1cc2ccccc2cc1O)C(CC)C(=O)CCC(=O)N(Cc1ccccc1)Cc1ccccc1 (configuration not stated)	inactive: 51.8 µM
COc1ccc2c(c1)-c1nc(=O)n(CCCN(C)C)c3ccc([N+](=O)[O-])c(c13)N2	active: 0.927 µM
O=C(/C=C(\Nc1ccccc1O)c1ccc(Br)cc1)C(Cl)(Cl)Cl	inactive: 2.04 µM
C/C(=C\CC/C=C(\C)CC/C=C(\C)CCC1SC1(C)C)CC/C=C(\C)CCC1OC1(C)C (configuration not stated)	inactive: > 100 µM
Cc1cc(C)nc(NS(=O)(=O)c2ccc(Nc3c4ccccc4nc4c(C(=O)N5CCN(CCO)CC5)cccc34)cc2)n1	inactive: > 100 µM
CCc1c(Cl)c(C)cc(O)c1Cl	inactive: 24.7 µM
Nc1ncnc2ccc(Sc3ccc4ncnc(N)c4c3)cc12	inactive: > 100 µM
CCOc1nnnc2[nH]cnc12	inactive: > 100 µM
COC(=O)C(CNC(=O)/C=C/c1ccc(OC(C)=O)c(OC(C)=O)c1)NC(=O)/C=C/c1ccc(OC(C)=O)c(OC(C)=O)c1 (configuration not stated)	inactive: > 100 µM
Nc1cccc(CCN2CCN(CCCc3ccccc3)CC2)c1	inactive: 53.2 µM
O=C(OCc1ccccc1[N+](=O)[O-])N1c2ccccc2[C@@]23O[C@]24CCC[C@H]3C#C/C=C\C#C[C@H]14	inactive: > 100 µM
Cc1c(/C=N/NC(=O)c2ccccc2O)c(=O)n(-c2ccccc2)n1C	inactive: > 100 µM

Structure (SMILES)	GI50
COc1cccc2c(Nc3ccc(S(=O)(=O)Nc4ncccn4)cc3)c3ccc([N+](=O)[O-])cc3nc12	inactive: > 100 µM
O=C(O)C12C3CCCC1C2CC3 (configuration not stated)	inactive: > 100 µM
COC(=O)c1c(C)[nH]c2c1C(=O)C(=O)c1nc(C)c(C)nc1-2	inactive: 10.2 µM
CN1c2ccccc2SC2C(c3ccccc3)=NOC21 (configuration not stated)	inactive: > 100 µM
CCOC(=O)C(C)c1nc2cc(C(F)(F)F)ccc2[nH]c1=O (configuration not stated)	inactive: > 100 µM
CC(C)(C)NNC(=O)CCn1[nH]c(=O)c(Cl)c(Cl)c1=O	inactive: > 100 µM
CC(NC(=O)C(N)Cc1ccc(O)cn1)C(=O)O (configuration not stated)	inactive: > 100 µM
O=C1/C(=C/c2ccccc2)CN(C(=O)CCN2CCCC2)C/C1=C\c1ccccc1	inactive: 2.33 µM
COC(=O)CCC(NC(=O)OC(C)(C)C)C(=O)NC(Cc1ccc(NC(=O)CCCC(C)=O)cc1)C(=O)NC(CCC(=O)OC)C(=O)OC (configuration not stated)	inactive: > 100 µM
CC(CSc1nc2c(c(=N)n1-c1ccccc1)c(=S)n(-c1ccccc1)c(=S)n2-c1ccccc1)CN(C)C (configuration not stated)	inactive: 1.9 µM
SCCCSCCSCCCSCCS	inactive: > 100 µM
Cc1cccc(Nc2nn3c(=O)c4c5c(sc4nc3s2)CCCC5)c1	inactive: > 100 µM
C/C(=N\N=C(\N)SB(F)F)c1ccc2ccccc2c1	inactive: > 100 µM
CC(C)=CCC/C(C)=C/C=C/C(C)=C/C=C/C(C)=C/C=C/C=C(C)/C=C/C=C(C)/C=C/[C@H]1C(C(C)(C)O)CC[C@]1(C)O (some centres not stated)	inactive: 52.4 µM
O=C1CCCCC1CN1CCCC1 (configuration not stated)	inactive: > 100 µM
CC1=C(C(=O)NC2CCCCC2)CC(C(=O)NC2CCCCC2)=C(C)N1	inactive: > 100 µM
COc1cc(Cn2c3c(c4c(C(=O)NCCN(C)C)c(O)ccc42)C(=O)c2ccccc2C3=O)cc(OC)c1	inactive: 1.69 µM
c1ccc(CSCCc2ccncc2)cc1	inactive: > 100 µM
NC(=O)NC(=O)c1cccc(CNc2ccc(C(=O)N[C@@H](CCC(=O)O)C(=O)O)cc2)n1	inactive: > 100 µM
O/N=C(\c1ccccc1)N1CCCCC1	inactive: > 100 µM
O=C(Cc1ccccc1F)NC1=C(Cl)C(=O)c2ccccc2C1=O	inactive: 5.25 µM
Cc1nc2nn(C)cc2c(=O)n1/N=C/c1ccccc1	inactive: > 100 µM
Cc1cccc(C(C)O)n1 (configuration not stated)	inactive: > 100 µM
